Test results from patent US20090311253A1 (AbbVie / Abbott, published 2009).

Key:
[1] = biological target: T1, Recombinant Human IL-1β (human, UniProt P01584 117-269); assay: cell-based or functional assay
[2] = biological target: T2, Recombinant Human VEGF (human, UniProt P15692-4 27-191); assay: Biacore SPR
T2 construct: also called VEGF165
T2 sequence (looked up): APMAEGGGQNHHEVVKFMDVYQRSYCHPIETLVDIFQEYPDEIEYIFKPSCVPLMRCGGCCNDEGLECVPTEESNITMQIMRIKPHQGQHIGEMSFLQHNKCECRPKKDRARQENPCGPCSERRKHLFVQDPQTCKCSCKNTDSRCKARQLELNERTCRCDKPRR
Procedure: (§1) The BIACORE assay (Biacore, Inc, Piscataway, N.J.) determines the affinity of antibodies or DVD-Ig with kinetic measurements of on-rate and off-rate constants. Binding of antibodies or DVD-Ig to a target antigen (for example, a purified recombinant target antigen) is determined by surface plasmon resonance-based measurements with a BiacoreR 1000 or 3000 instrument (Biacore® AB, Uppsala, Sweden) using running HBS-EP (10 mM HEPES [pH 7.4], 150 mM NaCl, 3 mM EDTA, and 0.005% surfactant P20) at 25° C. All chemicals are obtained from Biacore® AB (Uppsala, Sweden) or otherwise from a different source as described in the text. For example, approximately 5000 RU of goat anti-mouse IgG, (Fcγ), fragment specific polyclonal antibody (Pierce Biotechnology Inc, Rockford, Ill.) diluted in 10 mM sodium acetate (pH 4.5) is directly immobilized across a CM5 research grade biosensor chip using a standard amine coupling kit according to manufacturer's instructions and procedures at 25 μg/ml. Unreacted moieties on the biosensor surface are blocked with ethanolamine. Modified carboxymethyl dextran surface in flowcell 2 and 4 is used as a reaction surface. Unmodified carboxymethyl dextran without goat anti-mouse IgG in flow cell 1 and 3 is used as the reference surface. For kinetic analysis, rate equations derived from the 1:1 Langmuir binding model are fitted simultaneously to association and dissociation phases of all eight injections (using global fit analysis) with the use of Biaevaluation 4.0.1 software. Purified antibodies or DVD-Ig are diluted in HEPES-buffered saline for capture across goat anti-mouse IgG specific reaction surfaces. Antibodies or DVD-Ig to be captured as a ligand (25 μg/ml) are injected over reaction matrices at a flow rate of 5 μl/min. The association and dissociation rate constants, kₒₙ (M⁻¹s⁻¹) and koff (s⁻¹) are determined under a continuous flow rate of 25 μl/min. Rate constants are derived by making kinetic binding measurements at different antigen concentrations ranging from […]. The equilibrium dissociation constant (M) of the reaction between antibodies or DVD-Igs and the target antigen is then calculated from the kinetic rate constants by the following formula: KD=koff/kₒₙ. Binding is recorded as a function of time and kinetic rate constants are calculated.

[3] = biological target: T1, Recombinant Human IL-1β; assay: Biacore SPR
Procedure: as §1

[4] = biological target: T2, Recombinant Human VEGF; assay: direct bind ELISA
Procedure: (§2) Enzyme Linked Immunosorbent Assays to screen for antibodies that bind a desired target antigen were performed as follows. High bind ELISA plates (Corning Costar # 3369, Acton, Mass.) were coated with 100 μL/well of 10 μg/ml of desired target antigen (R&D Systems, Minneapolis, Minn.) or desired target antigen extra-cellular domain/FC fusion protein (R&D Systems, Minneapolis, Minn.) or monoclonal mouse anti-polyhistidine antibody (R&D Systems # MAB050, Minneapolis, Minn.) in phosphate buffered saline (10×PBS, Abbott Bioresearch Center, Media Prep# MPS-073, Worcester, Mass.) overnight at 4° C. Plates were washed four times with PBS containing 0.02% Tween 20. Plates were blocked by the addition of 300 μL/well blocking solution (non-fat dry milk powder, various retail suppliers, diluted to 2% in PBS) for ½ hour at room temperature. Plates were washed four times after blocking with PBS containing 0.02% Tween 20.
(§3) Plates were washed 4 times with PBS containing 0.02% Tween 20.
(§4) One hundred microliters of enhanced TMB solution (Neogen Corp. #308177, K Blue, Lexington, Ky.) was added to each well and incubated for 10 minutes at room temperature. The reaction was stopped by the addition of 50 μL 1N sulphuric acid. Plates were read spectrophotometrically at a wavelength of 450 nm.

[5] = biological target: T1, Recombinant Human IL-1β; assay: direct bind ELISA
Procedure: as §2, §3, §4

[6] = biological target: T3, Recombinant Human IL-13 (human, UniProt P35225 partial chain, limits assumed); assay: cell-based or functional assay
[7] = biological target: Recombinant Human IL-9 (human, UniProt P15248); assay: Biacore SPR
UniProt P15248, sequence (P15248 19-144 limits assumed): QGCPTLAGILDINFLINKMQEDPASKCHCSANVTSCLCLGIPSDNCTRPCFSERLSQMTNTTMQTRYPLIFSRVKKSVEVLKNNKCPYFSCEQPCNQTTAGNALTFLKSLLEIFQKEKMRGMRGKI
Procedure: as §1

[8] = biological target: T3, Recombinant Human IL-13; assay: Biacore SPR
T3 sequence (P35225 35-146 limits assumed): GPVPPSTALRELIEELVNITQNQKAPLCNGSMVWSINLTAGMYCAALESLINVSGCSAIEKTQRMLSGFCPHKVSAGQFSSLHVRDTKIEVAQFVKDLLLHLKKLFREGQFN
Procedure: as §1

[9] = biological target: T3, Recombinant Human IL-13; assay: direct bind ELISA
Procedure: as §2, §3, §4

[10] = biological target: T4, Recombinant Human IL-6 sR (human, UniProt P08887 20-358, limits assumed); assay: Biacore SPR
T4 construct: domain: IL-6 sR; soluble receptor; also called IL-6R
T4 sequence (looked up): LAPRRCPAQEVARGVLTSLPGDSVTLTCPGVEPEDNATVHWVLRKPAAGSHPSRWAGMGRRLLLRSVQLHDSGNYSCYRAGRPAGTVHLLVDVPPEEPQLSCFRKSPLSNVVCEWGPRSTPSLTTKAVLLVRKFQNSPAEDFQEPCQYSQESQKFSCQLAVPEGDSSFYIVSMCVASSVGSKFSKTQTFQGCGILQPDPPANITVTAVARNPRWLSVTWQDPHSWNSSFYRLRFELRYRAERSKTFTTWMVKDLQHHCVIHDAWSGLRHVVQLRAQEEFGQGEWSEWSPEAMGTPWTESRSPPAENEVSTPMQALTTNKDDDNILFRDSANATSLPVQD
Procedure: as §1

[11] = biological target: T5, Recombinant Human IL-17 (human, UniProt Q16552 20-155, limits assumed); assay: Biacore SPR
T5 construct: bought; also called IL-17A
Procedure: as §1

[12] = biological target: T6, IL-6R on cells (UniProt P08887 20-468, limits assumed); assay: flow cytometry on cells, 2 µg/mL
T6 construct: whole, on cells
T6 sequence (looked up): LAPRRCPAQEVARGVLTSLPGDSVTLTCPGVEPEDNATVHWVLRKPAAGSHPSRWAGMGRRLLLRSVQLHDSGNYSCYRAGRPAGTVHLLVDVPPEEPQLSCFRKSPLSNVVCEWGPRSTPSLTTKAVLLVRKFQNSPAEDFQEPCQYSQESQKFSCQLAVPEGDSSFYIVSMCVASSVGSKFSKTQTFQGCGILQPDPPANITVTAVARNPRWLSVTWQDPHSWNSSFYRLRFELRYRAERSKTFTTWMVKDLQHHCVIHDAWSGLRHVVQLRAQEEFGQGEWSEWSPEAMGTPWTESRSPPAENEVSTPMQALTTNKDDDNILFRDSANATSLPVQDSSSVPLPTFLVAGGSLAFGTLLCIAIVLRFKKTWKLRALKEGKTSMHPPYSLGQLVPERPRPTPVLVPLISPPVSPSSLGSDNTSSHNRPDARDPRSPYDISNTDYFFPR
Procedure: Stable cell lines overexpressing a cell-surface antigen of interest or human tumor cell lines were harvested from tissue culture flasks and resuspended in phosphate buffered saline (PBS) containing 5% fetal bovine serum (PBS/FBS). Prior to staining, human tumor cells were incubated on ice with (100 μl) human IgG at 5 μg/ml in PBS/FCS. 1−5×10⁵ cells were incubated with antibody or DVD-Ig (2 μg/mL) in PBS/FBS for 30-60 minutes on ice. […] After 30 minutes incubation on ice, cells were washed twice and resuspended in PBS/FBS. Fluorescence was measured using a Becton Dickinson FACSCalibur (Becton Dickinson, San Jose, Calif.).
The geometric mean is the n root of the multiplication product of n fluorescent signals (a1×a2×a3 . . . an). With log-transformed data the geometric mean is used to normalize the weighting of the data distribution.

[13] = biological target: T5, Recombinant Human IL-17; assay: cell-based or functional assay
[14] = biological target: T4, Recombinant Human IL-6 sR; assay: direct bind ELISA
Procedure: as §2, §3, §4

[15] = biological target: T5, Recombinant Human IL-17; assay: direct bind ELISA
Procedure: as §2, §3, §4

[16] = biological target: T6, IL-6R on cells; assay: cell-based or functional assay

IL-1β Neutralization Assay EC50 (MRC5 cells, hIL-8) [1]: 0.023 nM | Kd [2]: 1 nM | koff [2]: 3.71e-05 s⁻¹ | kon [2]: 37000 M⁻¹ s⁻¹ | Kd [3]: 0.0338 nM | koff [3]: 4.21e-05 s⁻¹ | kon [3]: 1.25e+06 M⁻¹ s⁻¹ | EC50 [4]: 131 nM | EC50 [5]: 8.2 nM
B1: DVD123 (bispecific antibody, human IgG1, kappa)
heavy: QVQLVESGGGVVQPGRSLRLSCAASGFTFSVYGMNWVRQAPGKGLEWVAIIWYDGDNQYYADSVKGRFTISRDNSKNTLYLQMNGLRAEDTAVYYCARDLRTGPFDYWGQGTLVTVSSASTKGPEVQLVESGGGLVQPGGSLRLSCAASGYTFTNYGMNWVRQAPGKGLEWVGWINTYTGEPTYAADFKRRFTFSLDTSKSTAYLQMNSLRAEDTAVYYCAKYPHYYGSSHWYFDVWGQGTLVTVSS[left out - human IgG1 constant region]
light: EIVLTQSPDFQSVTPKEKVTITCRASQSIGSSLHWYQQKPDQSPKLLIKYASQSFSGVPSRFSGSGSGTDFTLTINSLEAEDAAAYYCHQSSSLPFTFGPGTKVDIKRTVAAPDIQMTQSPSSLSASVGDRVTITCSASQDISNYLNWYQQKPGKAPKVLIYFTSSLHSGVPSRFSGSGSGTDFTLTISSLQPEDFATYYCQQYSTVPWTFGQGTKVEIKRTVAAPSVFIFPPSDEQLKSGTASVVCLLNNFYPREAKVQWKVDNALQSGNSQESVTEQDSKDSTYSLSSTLTLSKADYEKHKVYACEVTHQGLSSPVTKSFNRGEC
notes: outer AB032, inner AB014; vectors V1, V2

IL-13 Neutralization Assay EC50 (A549 cells, hTARC) [6]: 0.2 nM | Kd [7]: 0.0167 nM | koff [7]: 7.5e-05 s⁻¹ | kon [7]: 4.51e+06 M⁻¹ s⁻¹ | Kd [8]: 1.02 nM | koff [8]: 0.000105 s⁻¹ | kon [8]: 103000 M⁻¹ s⁻¹ | EC50 [9]: 492 nM
B2: DVD285 (bispecific antibody, human IgG1, kappa)
heavy: QVQLQQSGAELMKPGASVKLSCKATGYTFTGSWIEWIKQRPGHGLEWIGQILPGSGSAYYNEKFKGKATFTADTSSKTVYIQLISLTTEDSAIYYCAREDNYGSSSLAYWGQGTLLTVSAASTKGPEVTLRESGPGLVKPTQTLTLTCTLYGFSLSTSDMGVDWIRQPPGKGLEWLAHIWWDDVKRYNPALKSRLTISKDTSKNQVVLKLTSVDPVDTATYYCARTVSSGYIYYAMDYWGQGTLVTVSS[left out - human IgG1 constant region]
light: DILLTQSPAILSVSPGERVSFS[left out - about 80 residues]FGAGTKLELKRTVAAPDIQMTQSPSSLSASVGDRVTISCRASQDIRNYLNWYQQKPGKAPKLLIFYTSKLHSGVPSRFSGSGSGTDYTLTISSLQPEDIATYYCQQGLTPPLTFGGGTKVEIKRTVAAPSVFIFPPSDEQLKSGTASVVCLLNNFYPREAKVQWKVDNALQSGNSQESVTEQDSKDSTYSLSSTLTLSKADYEKHKVYACEVTHQGLSSPVTKSFNRGEC
notes: outer AB056, inner AB051; vectors V1, V2

Kd [10]: 0.263 nM | koff [10]: 0.000187 s⁻¹ | kon [10]: 709000 M⁻¹ s⁻¹ | Kd [11]: 55.8 nM | koff [11]: 0.002 s⁻¹ | kon [11]: 34600 M⁻¹ s⁻¹ | FACS Geometric Mean [12]: 10.1 | IL-17 Neutralization Assay EC50 (HS27 cells, IL-6 secretion) [13]: 6.7 nM | EC50 [14]: 1.75 nM | EC50 [15]: 41 nM | IL-6 induced pSTAT3 in TF-1 cells, EC50 [16]: 0.109 nM
B3: DVD147 (bispecific antibody, human IgG1, kappa)
heavy: EVQLQESGPGLVRPSQTLSLTCTVSGYSITSDHAWSWVRQPPGRGLEWIGYISYSGITTYNPSLKSRVTMLRDTSKNQFSLRLSSVTAADTAVYYCARSLARTTAMDYWGQGSLVTVSSASTKGPEVQLVESGGGLVQPGGSLRLSCAASGFTFSNYWMNWVRQAPGKGLEWVAAINQDGSEKYYVGSVKGRFTISRDNAKNSLYLQMNSLRVEDTAVYYCVRDYYDILTDYYIHYWYFDLWGRGTLVTVSS[left out - human IgG1 constant region]
light: DIQMTQSPSSLSASVGDRVTITCRASQDISSYLNWYQQKPGKAPKLLIYYTSRLHSGVPSRFSGSGSGTDFTFTISSLQPEDIATYYCQQGNTLPYTFGQGTKVEIKRTVAAP[left out - about 100 residues][left out - about 100 residues]
notes: vectors V1, V2; also called IL-6R and IL-17A DVD-Ig

Each block holds one binder with its values, some of them ahead of it.
